Numbering of substitutions follows the chain as printed.
B1: Antibody C: humanized anti-human Notch4 antibody, heavy chain variable region HK2, light chain variable region L4, C-terminal Lys deleted (antibody)
heavy: EVQLVESGGGLVQPGGSLRLSCAASGFTFSSYGMSWVRQAPGKGLELVSTINSNGGRTYYPDSVKGRFTISRDNSKNTLYLQMGSLRAEDMAVYYCARDQGFAYWGQGTLVTVSSASTKGPSVFPLAPCSRSTSESTAALGCLVKDYFPEPVTVSWNSGALTSGVHTFPAVLQSSGLYSLSSVVTVPSSNFGTQTYTCNVDHKPSNTKVDKTVERKCCVECPPCPAPPAAAPSVFLFPPKPKDTLMISRTPEVTCVVVDVSHEDPEVQFNWYVDGVEVHNAKTKPREEQFNSTFRVVSVLTVVHQDWLNGKEYKCKVSNKGLPAPIEKTISKTKGQPREPQVYTLPPSREEMTKNQVSLTCLVKGFYPSDIAVEWESNGQPENNYKTTPPMLDSDGSFFLYSKLTVDKSRWQQGNVFSCSVMHEALHNHYTQKSLSLSPG
light: EIVMTQSPATLSVSPGERATLSCKASQDVGTAVAWYQQKPGQAPRLLIYWASTRHTGIPARFSGSGSGTEFTLTISSLQSEDFAVYFCQQYSSYPWTFGQGTKVEIKRTVAAPSVFIFPPSDEQLKSGTASVVCLLNNFYPREAKVQWKVDNALQSGNSQESVTEQDSKDSTYSLSSTLTLSKADYEKHKVYACEVTHQGLSSPVTKSFNRGEC
B2: Antibody G: humanized anti-human Notch4 antibody, heavy chain variable region HK3, light chain variable region L4, C-terminal Lys deleted (antibody)
heavy: B1 heavy with S49A, R87K
light: B1 light
B3: Antibody F: humanized anti-human Notch4 antibody, heavy chain variable region HA2, light chain variable region L3, C-terminal Lys deleted (antibody)
heavy: B1 heavy with P61A, D62N
light: B1 light with F87Y
B4: Antibody A: humanized anti-human Notch4 antibody, heavy chain variable region HK2, light chain variable region L3, C-terminal Lys deleted (antibody)
heavy: B1 heavy
light: B1 light with F87Y
B5: Antibody E: humanized anti-human Notch4 antibody, heavy chain variable region HK2, light chain variable region L6, C-terminal Lys deleted (antibody)
heavy: B1 heavy
light: B1 light with A43S

Molecular target: T1, Human Notch4-NRR Fusion Protein (Homo sapiens, UniProt Q99466)
T1 construct: Human Notch4-NRR domain Fc fusion proteins were expressed with a CHO cell line; Fc; made in house; host or cells: CHO cell line (antigen captured from culture supernatant)
T1 sequence (Q99466 1046-1445 limits assumed): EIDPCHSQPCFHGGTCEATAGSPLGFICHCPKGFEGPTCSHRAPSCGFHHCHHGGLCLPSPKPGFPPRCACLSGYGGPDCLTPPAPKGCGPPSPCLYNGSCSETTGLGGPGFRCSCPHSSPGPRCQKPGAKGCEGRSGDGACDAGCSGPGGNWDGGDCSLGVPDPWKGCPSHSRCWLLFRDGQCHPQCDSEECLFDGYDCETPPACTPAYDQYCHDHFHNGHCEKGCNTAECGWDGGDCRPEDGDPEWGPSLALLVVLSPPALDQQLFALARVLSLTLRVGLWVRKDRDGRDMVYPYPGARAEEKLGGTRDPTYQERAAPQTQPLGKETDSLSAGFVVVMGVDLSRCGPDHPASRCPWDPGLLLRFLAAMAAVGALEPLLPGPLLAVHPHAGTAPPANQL
Experiment: Kinetic analysis, captured Human Notch4-NRR Fc fusion protein, humanized antibody injected
Assay type: binding
Conditions: Table 30, Human Notch4-NRR Fc fusion
Procedure: Kinetic analysis of further anti-Notch4 inhibitory humanized antibodies was carried out as follows. Human Notch4-NRR domain Fc fusion proteins were expressed with a CHO cell line. The antigen in the culture supernatant was captured by the anti-human Notch4 antibody fixed on a CM5 sensor chip that recognizes different epitopes of human Notch4. The humanized anti-human Notch4 antibody was then injected onto the sensor chip at various concentrations. The interaction and disassociation constants thereof were calculated according to manufacturer's instructions.
In the table below, e.g. the description “HK2L3 (Lys-)” means that the heavy chain variable region of the humanized anti-human Notch4 antibody employed in the experiment is the heavy chain variable region of the humanized anti-human Notch4 antibody heavy chain HK2 in Example 1, light chain variable region is the light chain variable region of the humanized anti-human Notch4 antibody light chain L3 in Example 1, and lysine (Lys) located at the C-terminal of the heavy chain of a common human antibody is deleted in this antibody. Those without the description “(Lys-)” mean that Lys located at the C-terminal of the heavy chain of the human antibody is not deleted.

Molecule | Rmax1 (RU) | ka [M⁻¹ s⁻¹] | kd [s⁻¹]
B1 | 35.9 | 1.91e+06 | 0.00106
B2 | 29.2 | 1.78e+06 | 0.00111
B3 | 20.2 | 1.55e+06 | 0.00136
B4 | 33.4 | 1.62e+06 | 0.000889
B5 | 28.9 | 2.23e+06 | 0.00115

From patent publication US9969812B2, “Anti human Notch4 antibody” (Eisai R&D Management Co., Ltd., priority 2015, dated 2018)
